Whole data set: some 33,000 sequences, median “E-score (-0.5 to 0.5)” near -0.011, cut for the highest 2% near 0.28. The list shows a part of the results.
biological target: T1, Gcr1 (UniProt P07261); experiment: PBM E-score (8-mer binding enrichment) (E-score (-0.5 to 0.5)); higher = stronger / more preferred TF binding; most listed sequences are background and not binding sites; settings: protein concentration: 100 nM; construct: GST-full length
T1 sequence: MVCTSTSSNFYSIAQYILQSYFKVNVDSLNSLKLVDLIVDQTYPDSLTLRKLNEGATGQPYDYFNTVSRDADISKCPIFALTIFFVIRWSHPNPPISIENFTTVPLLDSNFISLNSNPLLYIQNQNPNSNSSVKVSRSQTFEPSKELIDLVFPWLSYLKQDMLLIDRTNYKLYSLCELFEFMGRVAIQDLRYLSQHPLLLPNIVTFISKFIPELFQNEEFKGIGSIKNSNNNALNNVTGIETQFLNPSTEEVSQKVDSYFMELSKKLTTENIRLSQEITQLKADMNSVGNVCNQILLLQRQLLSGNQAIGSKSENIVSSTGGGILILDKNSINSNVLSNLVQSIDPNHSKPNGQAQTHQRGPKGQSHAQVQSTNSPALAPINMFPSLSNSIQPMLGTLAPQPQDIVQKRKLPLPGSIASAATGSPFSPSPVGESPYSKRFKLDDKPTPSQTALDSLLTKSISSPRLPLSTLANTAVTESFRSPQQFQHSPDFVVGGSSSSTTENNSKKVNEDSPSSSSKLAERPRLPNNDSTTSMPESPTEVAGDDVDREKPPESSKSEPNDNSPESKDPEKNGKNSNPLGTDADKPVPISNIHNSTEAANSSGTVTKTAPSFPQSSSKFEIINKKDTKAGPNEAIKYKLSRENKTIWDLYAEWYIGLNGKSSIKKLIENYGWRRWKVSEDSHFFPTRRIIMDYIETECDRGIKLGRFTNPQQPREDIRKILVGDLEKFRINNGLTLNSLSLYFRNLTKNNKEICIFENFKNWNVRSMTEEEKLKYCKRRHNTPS
Description: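 Universal 'all 10-mer' protein binding microarrays (Agilent AMADID 015681) probed with GST-tagged S. cerevisiae TFs (full-length or DBD) made by in vitro transcription/translation (PURExpress), about 100-200 nM. Bound TF was detected with fluorescent anti-GST. Each ungapped 8-mer (which stands for itself and its reverse complement) is scored by the PBM enrichment score (E-score), a modified Wilcoxon-Mann-Whitney statistic from -0.5 to +0.5, computed with the Universal PBM Analysis Suite. Scale: above 0.35 generally sequence-specific binding.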

Sequence | PBM E-score
CTCTCATA | -0.128
GTTCGGTA | -0.0151
TGGCCGAA | -0.084
CAGGTAGC | 0.163
CCTCATCC | -0.0992
ACACCGTA | -0.113
ACTTCGCA | 0.229
CCGTAGCG | 0.0291
ATCATCAC | 0.162
CTGGGGAA | 0.0446
AGAACCTC | 0.144
TAATTGTA | 0.164
AATATTGA | 0.176
AAGCATTA | -0.0436
CAATGCGC | -0.116
TGGGAAAA | -0.0555
TCTCAGAA | 0.00947
TCAAGTGA | -0.0372
CTACGGGC | 0.141
GCAAACGC | -0.0923
AATATTCG | 0.155
AGGCCTCG | -0.31
AGATGACT | -0.136
GACGTGCA | -0.0428
CCCTACCC | -0.0215

Sequence | PBM E-score
TCCAACAA | 0.0707
ACTAACAA | 0.135
TAGTAGGA | 0.0257
AGGTATAC | -0.101
ACCGGGCC | 0.00575
ACCGACAC | -0.136
GCTTTGAC | -0.202
GAATTCGC | 0.103
ATGCTCCA | 0.00275
CGACGCCG | 0.349
AAAAGAGG | 0.0508
CAATCTCG | -0.205
GACGTATC | -0.108
AAGGACGA | -0.163
CCGACCAC | -0.0396
GAAAGTGA | 0.0212
AACCAGAA | 0.281
AACTCTGA | 0.0783
AGATCTTG | -0.202
ACTAGGAC | -0.00928
AGCGCAAT | 0.0239
AAATTACT | 0.115
CTGAATTA | 0.241
CTGCTAGC | -0.15
CAATATAG | 0.103

Sequence | PBM E-score
CTGCACTA | -0.145
AGGCATAA | -0.157
AGTACCGC | -0.0905
ATGGTCGG | -0.113
ATTGTCTG | -0.22
GTGCACAA | -0.0643
GGTTTAAA | -0.0771
ACGTCGAA | 0.0569
AAGTCCGT | -0.204
CAGAAAGC | -0.0028
CAATTCCA | 0.0815
ACTTTGTA | -0.172
CGGCCTAC | -0.111
ATCTACAC | -0.0227
CCCGATAG | 0.0207
CTTACTGA | -0.127
CGTTATGC | -0.123
AGCCACAG | -0.0526
TCACTGCA | -0.188
TAAACGGA | 0.129
CGATGCTC | 0.0296
ATGCTGAC | 0.0506
GAAGTAGA | -0.181
ACAAGCAT | 0.15
ACAAAAAG | 0.21

Sequence | PBM E-score
CCCCTACC | 0.119
ATCATTTG | 0.0162
GGGTAATA | 0.0147
TGGGTACA | 0.00845
TAGCGTGA | 0.0329
AATAAGAT | 0.0233
ACTTTTAT | 0.213
CGATACGA | 0.011
GATATGTA | -0.0283
CCCTACTA | 0.0892
CAGCAAAC | 0.0152
CGGCTCGC | -0.0257
CATTGAAG | -0.12
TTAGCGAA | -0.0886
ACGGTATC | -0.0774
ATCGTGAA | -0.006
CAGTAAAA | 0.0267
CAACAACG | 0.00989
CCTTTAGA | 0.103
CCGATAGA | 0.0663
CATCATAA | 0.0455
CCAGAAAA | 0.335
CTAATGAC | -0.051
CCGTGGTA | -0.241
AACGGCCC | -0.139

Sequence | PBM E-score
GCAAAATA | 0.0557
CATGCCCG | -0.216
ATCAGTAA | 0.178
CGCAATGA | 0.0652
CTTCTTCA | 0.0686
GGTCGACC | -0.168
GCAATAGC | -0.0441
GTGCCTAA | -0.117
AATGATAT | 0.129
AGGGACAT | -0.0927
GACGGCTA | -0.145
ACAGAGTG | -0.011
AGAATAAA | 0.00766
ATGCGTCG | 0.108
TAAGAATA | 0.103
CAACAGGG | -0.18
AACGGCGG | -0.0539
AGCGACCG | -0.0215
CAAGCACA | -0.0864
AATAATTG | 0.0775
CAAGGTTA | 0.0221
CAGACCAA | 0.0207
ACCTCCGC | -0.0164
CCGTACGG | -0.162
AAAGTATA | -0.0634

Sequence | PBM E-score
ACAGTGGG | 0.175
ATAACGAA | -0.0657
CTTGTTCA | 0.0893
GCGGTACC | 0.0358
TGCCAGCA | 0.125
GTCGTGAA | -0.0512
TCACAGCA | 0.0925
AGAAGTAC | -0.0476
AAAGTAAT | 0.154
GAGATCAC | -0.127
TGCGCAAA | 0.036
AACACACA | 0.105
GAATTAGC | 0.0262
GAACCCAC | 0.185
TGTACCAA | -0.171
ACCGGCCG | 0.038
AGATTTCG | 0.113
CATTTCTA | -0.0239
AGAGTTGA | -0.18
GAAGTCCC | -0.0966
GACGGGAA | -0.00518
CTCTGGCC | -0.0449
ATGATACG | 0.107
GTGACCAA | 0.116
AATTCTAG | 0.195

Sequence | PBM E-score
CTCGGCAA | 0.0422
ACCGAAGA | -0.0355
CAAGCAAC | -0.135
GTAACGTA | -0.152
CTTTATCC | 0.149
ATTGGCTA | -0.158
CCTATAAG | 0.212
AGGTGGAA | 0.0333
ACAGATCC | 0.0629
ACAAGTCG | -0.00176
AAACACGT | -0.0869
AGTTTAGA | 0.162
AGGCACTA | -0.113
AGGATACC | 0.242
AGCTAGCG | -0.149
ATACGTCC | -0.0269
AATCAATT | 0.0938
CCCCCTGC | -0.262
CTGAGCAC | 0.146
AGTCCTGC | 0.0253
CTATTCGC | 0.0553
GTAATCAA | -0.112
